Assay results: PubChem BioAssay (NCI)
“And” between values parts separate entries of the source, which are not always exact repeats. Identical values can stand only once.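 1) Cells in 96-well plates. 2) Compound, 48 h, 5 concentrations. 3) Linear interpolation between surrounding doses. 4) Unreached endpoint = highest concentration. GI50 is the concentration that inhibits growth by half. TGI: concentration producing complete growth inhibition.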 Square brackets hold non-standard residues; d marks the D form. Peptide text beside a SMILES is read from it. * marks the point of attachment. ξ: configuration not given here. X17 = COc1ccc(C(N*)c2ccc(OC)cc2)cc1; NMeF = CN[C@@H](Cc1ccccc1)C(=O)O; NMeD = CN[C@@H](CC(=O)O)C(=O)O; NMeV = CN[C@H](C(=O)O)C(C)C; ξNMeV = CNC(C(=O)O)C(C)C; Boc = CC(C)(C)OC(=O)*; ξNMeA = CNC(C)C(=O)O; ξV = CC(C)C(N)C(=O)O

These molecules were tested on NCI-H322M lung (assay: NCI-60 cell line screen, 48 h).
Cc1ccccc1OC(C)C(=O)NN1C(=O)CSC1c1ccccc1 (stereo unspecified) was tested, and the TGI was > 100 µM.
S=c1sc2c(n1-c1ccccc1)NC=NC2S (stereo unspecified) was tested, and the TGI was > 100 µM.
For C[C@]12CC[C@H](O)CC1=CC[C@@H]1[C@@H]2CC[C@]2(C)C(=N/N)/C(=N\O)C[C@@H]12, the TGI was > 100 µM.
Work on Cc1cc(I)cc(CN(CCCN(C)C)C(C)C)c1O yielded a GI50 of 22.9 µM and a TGI of 52.1 µM.
COC(=O)C1=C(C(=O)OC)SC(=C2SCSC3=C2SC(C(=O)OC)=C(C(=O)OC)C32SC3=C(CCCC3)S2)S1 was tested, and the TGI was > 100 µM.
In the case of Nc1ccc(C2=NNC(=O)Cc3cc4c(cc32)OCCO4)cc1Cl, the GI50 is reported as 19 µM and the TGI is reported as > 50 µM.
CCN1C(=O)N(c2ccccc2)C2NC(=S)N(/N=C/C=C/c3ccccc3OC)C21 (stereo unspecified) was tested, and the GI50 was 0.253 µM and the TGI was > 100 µM.
For O=C(/C=C/c1ccc([N+](=O)[O-])cc1)c1ccc(NCc2nc3ccccc3[nH]2)cc1, the TGI was 20.5 µM.
In the case of COc1cc(/C(C#N)=C/c2nc3c(N4CCOCC4)nc(Cl)nc3n2C)cc(OC)c1OC, the GI50 is reported as < 0.01 µM and the TGI is reported as > 100 µM.
Work on c1ccc(Sc2ncnc3ccccc23)cc1 yielded a GI50 of 17.3 µM and a TGI of 33.2 µM.
With CCn1c(-c2nonc2N)nc2c(C#CC(C)(C)O)nc(OC[C@@H](N)c3ccccc3)cc21 the GI50 was 7.59 µM and the TGI was 17.1 µM.
O=C(Oc1ccc(Cl)cc1)c1ccccc1Nc1ccnc(C(F)(F)F)c1 showed a GI50 of 17.4 µM and a TGI of 43.6 µM.
In the case of N#C/C(=C\c1cccc(Cl)c1Cl)c1ccccc1, the TGI is reported as > 100 µM.
In the case of CCOC(=O)C1=C(C(=O)OCC)C2c3ccccc3C=CN2C(C(=O)OCC)=C(SC)S1 (stereo unspecified), the TGI is reported as > 100 µM.
C=CC[C@H](C[C@H](C[C@H](C[C@H](C[C@H](C[C@H](C[C@H](C[C@H](C[C@H](C[C@H](CCCCC)OC)OC)OC)OC)OC)OC)OC)OC)OC)OC was tested, and the TGI was > 100 µM.
O=C1CCCCC1CN1CCCCC1 (stereo unspecified) was tested, and the TGI was > 100 µM.
In the case of Cc1ccc(/C=C/C(=O)c2cccc3ccccc23)cc1, the TGI is reported as 32 µM.
Cn1c(=O)c2c(nc3n2CC(C(=O)O)N3)n(C)c1=O (stereo unspecified) was tested, and the TGI was > 100 µM.
Molecule Cc1nnc(NC(=O)c2nc(S(=O)(=O)Cc3ccc(F)cc3)ncc2Cl)s1 has a GI50 of 17.7 µM and a TGI of 33.4 µM.
COc1ccc2nc3cc(Cl)ccc3c(NCCNCC(C)O)c2c1 (stereo unspecified) was tested, and the GI50 was 1.55 µM and the TGI was 5.23 µM.
In the case of COc1cccc(-c2nc(-c3ccc(NC(=O)OC(C)C)cc3)[nH]c2-c2ccnc(Br)c2)c1, the GI50 is reported as 2.89 µM and the TGI is reported as > 100 µM.
In the case of Cc1ccc(N(Cc2ccccc2)Cc2ccccc2)cc1, the TGI is reported as > 100 µM.
For O=c1c(-c2ccccc2)c2oc(c1-c1ccccc1)CSCc1cccc(c1)CSC2, the TGI was > 100 µM.
For NC1(c2cc3ccccc3s2)CCCC1, the TGI was > 100 µM.
With CCN(C(=O)N1CCN(c2cc3c(cc2F)c(=O)c(C(=O)O)cn3C2CC2)CC1)c1nc(-c2ccc(Cl)cc2)cs1 the GI50 was 1.08 µM and the TGI was > 26.9 µM.
CC1(COc2ccc3c(c2)ncn3-c2ccc3cccc(N4CCC(N)CC4)c3n2)COC1 was tested, and the GI50 was 2.72 µM and 2.24 µM and the TGI was 10.4 µM and 8.39 µM.
With CN(C)CCNS(=O)(=O)c1ccc(N)cc1 the TGI was > 100 µM.
In the case of CCOC(=S)SCC(=O)O, the TGI is reported as > 100 µM.
O=C(/C=C/c1ccc2c(c1)OCO2)c1ccc(O)cc1 was tested, and the TGI was 32.1 µM.
In the case of Nc1nccc(-c2c[nH]c3cc(Br)ccc23)n1, the TGI is reported as 60.9 µM.
With COc1ccc(C(NC(=O)C[C@@H](C(=O)N(C)C(C)C(=O)O)N(C)C(=O)[C@@H]2CCCN2C(=O)[C@H](C(C)C)N(C)C(=O)C(C(C)C)N(C)C(=O)[C@H](Cc2ccccc2)N(C)C(=O)C(NC(=O)OC(C)(C)C)C(C)C)c2ccc(OC)cc2)cc1 (stereo partly specified) (Boc-[ξV][NMeF][ξNMeV][NMeV]P[NMeD](X17)[ξNMeA]-OH) the TGI was 37.5 µM and 29.5 µM.
In the case of O=S(=O)(c1ccccc1)N1CCN(S(=O)(=O)c2ccccc2)c2ccccc21, the TGI is reported as > 100 µM.
In the case of Cc1cc(Nc2ccc(S(=O)(=O)O)c3cc(S(=O)(=O)O)cc(S(=O)(=O)O)c23)c2ccccc2n1, the TGI is reported as > 100 µM.
With Nc1ncnc2c1[nH]c(=O)n2-c1ccccc1 the TGI was > 100 µM.
For O=C(C1OC1c1ccc(Br)cc1O)C12CC3CC(CC(C3)C1)C2 (stereo unspecified), the TGI was > 100 µM.
For O=C1NC(=NC(CO)Cc2ccccc2)S/C1=C\c1ccc2ncccc2c1 (stereo unspecified), the GI50 was 15.5 µM and 2.24 µM and the TGI was > 25 µM.
Work on Nc1n[nH]c2cccc(C#Cc3cccc(C(=O)Nc4ccc(CN5CCOCC5)c(C(F)(F)F)c4)c3)c12 yielded a GI50 of 2.96 µM and a TGI of 10.2 µM.
